Some entries of the source have several records that differ or are many. The list is limited to them. The source may hold further records. Some protein pairs were linked at several places, one record each.
Biological target: GARS1 (UniProt P41250)
Test: cross-linking mass spectrometry
Details: not determined

Sequence of ATP5F1C (P36542 whole entry): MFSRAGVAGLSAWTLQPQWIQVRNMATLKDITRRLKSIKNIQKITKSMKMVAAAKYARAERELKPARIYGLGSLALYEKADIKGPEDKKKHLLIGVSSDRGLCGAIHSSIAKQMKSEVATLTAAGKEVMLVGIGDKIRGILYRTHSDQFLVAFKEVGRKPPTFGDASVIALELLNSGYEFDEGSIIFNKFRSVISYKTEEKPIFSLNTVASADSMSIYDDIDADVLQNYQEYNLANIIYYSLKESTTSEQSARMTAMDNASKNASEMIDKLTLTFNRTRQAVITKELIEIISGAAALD
Sequence of UniProt P41250 (P41250 whole entry): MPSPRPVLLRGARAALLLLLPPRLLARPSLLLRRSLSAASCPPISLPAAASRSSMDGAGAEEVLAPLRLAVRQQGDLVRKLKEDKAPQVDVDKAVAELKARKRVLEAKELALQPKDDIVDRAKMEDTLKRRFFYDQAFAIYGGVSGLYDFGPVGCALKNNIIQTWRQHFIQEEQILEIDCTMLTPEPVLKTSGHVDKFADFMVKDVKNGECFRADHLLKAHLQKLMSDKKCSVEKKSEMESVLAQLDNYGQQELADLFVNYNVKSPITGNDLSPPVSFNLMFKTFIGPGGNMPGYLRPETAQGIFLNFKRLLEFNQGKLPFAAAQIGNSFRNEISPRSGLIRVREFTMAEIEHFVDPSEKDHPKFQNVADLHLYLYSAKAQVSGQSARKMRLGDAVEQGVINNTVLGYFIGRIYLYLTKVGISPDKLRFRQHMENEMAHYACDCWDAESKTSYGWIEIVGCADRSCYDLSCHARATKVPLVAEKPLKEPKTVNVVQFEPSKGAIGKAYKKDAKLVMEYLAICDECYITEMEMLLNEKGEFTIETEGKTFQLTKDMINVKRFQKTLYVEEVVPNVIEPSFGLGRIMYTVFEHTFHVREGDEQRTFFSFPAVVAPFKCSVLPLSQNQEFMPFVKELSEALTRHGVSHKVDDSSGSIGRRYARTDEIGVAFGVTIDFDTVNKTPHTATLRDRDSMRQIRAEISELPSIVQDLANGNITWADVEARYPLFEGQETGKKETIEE

Substance: ATP5F1C, P36542
- cross-linked residues: K49 - K484 and K49 - K487

— PMC10313818
